Data from patent US20250064840A1, “DRUG DELIVERY SYSTEMS BASED ON ENDOPEROXIDES USEFUL IN DIAGNOSIS AND THERAPY, AND METHODS THEREOF” (FACULDADE DE FARMÁCIA DA UNIVERSIDADE DE LISBOA, priority 2021, published 2025).

Assays:
HCT116 cells [1] = assay: Iron competition assay with DFO, MTS assay; assay type: cell-based, human; settings: 24 hours
HCT116 cells [2] = settings: 1 μM, 24 hours incubation

SMILES	induction of cell death (cell viability, MTS) (HCT116 cells [1]; 10 μM compound alone, versus DMSO)	reduction in potency with DFO versus compound alone (HCT116 cells [1]; 10 μM compound together with 1 μM DFO) [%]	cellular localization of fluorescence (HCT116 cells [2])
COc1cccc2c1C(=O)c1c(O)c3c(c(O)c1C2=O)C[C@](O)(C(=O)CO)C[C@H]3O[C@@H]1CC(NC(=O)OCC2=CCCCC23OOC2(OO3)C3CC4CC2CC(O)(C4)C3)[C@@H](O)[C@@H](C)O1 (stereo partly drawn) [Compound IIe]	induces cell death	7	
COc1cccc2c1C(=O)c1c(O)c3c(c(O)c1C2=O)C[C@@](O)(C(=O)CO)C[C@@H]3O[C@H]1C[C@H](N)[C@H](O)[C@H](C)O1 [Doxorubicin, doxorubicin, reference compound]			accumulated in the nucleus
